Our source for the enrichment ratio values is a collection of fitness landscapes (doi:10.1126/science.1257360).

B1: PhoQ; a variant is named by its letters at X, in order, P23837 (parent)
chain: MKKLLRLFFPLSLRVRFLLATAAVVLVLSLAYGMVALIGYSVSFDKTTFRLLRGESNLFYTLAKWENNKLHVELPENIDKQSPTMTLIYDENGQLLWAQRDVPWLMKMIQPDWLKSNGFHEIEADVNDTSLLLSGDHSIQQQLQEVREDDDDAEMTHSVAVNVYPATSRMPKLTIVVVDTIPVELKSSYMVWSWFIYVLSANLLLVIPLLWVAAWWSLRPIEALAKEVRELEEHNRELLNPATTRELTSLVRNLNRLLKSERERYDKYRTTLTDLTHSLKTPLXXLQXXLRSLRSEKMSVSDAEPVMLEQISRISQQIGYYLHRASMRGGTLLSRELHPVAPLLDNLTSALNKVYQRKGVNISLDISPEISFVGEQNDFVEVMGNVLDNACKYCLEFVEISARQTDEHLYIVVEDDGPGIPLSKREVIFDRGQRVDTLRPGQGVGLAVAREITEQYEGKIVAGESMLGGARMEVIFGRQHSAPKDE

Some of the results follow.

In the experiment the parent is B1. Description: enrichment ratio after two sorts for PhoP signalling (ratio (wild type AVST 3.29)); higher = more functional. Particulars: with PhoP (E. coli).
Take NPAH: the enrichment ratio is at most 0.25.
To SEYE belongs at most 0.25; to HTPH, at most 0.25; to LGGL, at most 0.25.
As to MFTD, the enrichment ratio was at most 0.25.
In the case of HGGN, the enrichment ratio was at most 0.25.
Regarding SKFN, the enrichment ratio was at most 0.25.
FHQE: the enrichment ratio was at most 0.25.
For the variant TKFG, the enrichment ratio is at most 0.25.
Turning to QCWC, the enrichment ratio is at most 0.25.
In the case of MNAF, the enrichment ratio is 1.87.
As for NANG, the enrichment ratio is at most 0.25.
For YAMG, the enrichment ratio was at most 0.25.
To QDQT belongs at most 0.25; to EAQW, at most 0.25; to TLVW, at most 0.25.
On to PSCL, for which the enrichment ratio is at most 0.25.
In the case of MLKI, the enrichment ratio was at most 0.25.
As for ILDR, the enrichment ratio was at most 0.25.
Regarding APMY, the enrichment ratio is at most 0.25.
Regarding LIEL, the enrichment ratio is at most 0.25.
To MVPR belongs at most 0.25; to VDYE, at most 0.25; to MKIS, at most 0.25.
Take TAKN: the enrichment ratio is at most 0.25.
Turning to TFQI, the enrichment ratio is at most 0.25.
In the case of NQAW, the enrichment ratio is at most 0.25.
For FCSF, the enrichment ratio is at most 0.25.
In the case of YEYN, the enrichment ratio is at most 0.25.
Take RCFW: the enrichment ratio is at most 0.25.
As for NAKM, the enrichment ratio was at most 0.25.
For GVYP, the enrichment ratio is at most 0.25.
For the variant SMLH, the enrichment ratio came out at 2.83.
Turning to EVVG, the enrichment ratio is at most 0.25.
For the variant LCCF, the enrichment ratio was at most 0.25.
On to KQGS, for which the enrichment ratio was at most 0.25.
On to KATY, for which the enrichment ratio is at most 0.25.
Take ASNH: the enrichment ratio is 2.11.
Regarding GNLE, the enrichment ratio came out at 1.64.
As for PQHQ, the figure is at most 0.25.
With MTKR, the enrichment ratio was at most 0.25.
To MHVD belongs at most 0.25; to MCNN, at most 0.25; to RQSH, at most 0.25.
In the case of SWNP, the enrichment ratio is at most 0.25.
To ATSK belongs 4.37.
To KFWP belongs at most 0.25.
In the case of LISM, the enrichment ratio is at most 0.25.
In the case of FMTM, the enrichment ratio was at most 0.25.
On to WLCQ, for which the enrichment ratio is at most 0.25.
PSVH: the enrichment ratio is at most 0.25.
To YGKM belongs at most 0.25; to PTEC, at most 0.25.
As for DSFK, the figure is at most 0.25; as for GMGR, 3.01; as for RMPL, at most 0.25.
To DSNG belongs at most 0.25; to SQIH, 12.4; to YLVL, at most 0.25.
With PLHS, the enrichment ratio is at most 0.25.
As for FFVY, the figure is at most 0.25.
As for VHIF, the figure is at most 0.25; as for ISRP, at most 0.25; as for LFDE, at most 0.25.
As for PCKG, the enrichment ratio is at most 0.25.
As for REPP, the figure is at most 0.25.
For the variant RGDL, the enrichment ratio is at most 0.25.
Turning to DFHK, the enrichment ratio is at most 0.25.
On to PTSP, for which the enrichment ratio is at most 0.25.
Consider TQFI, for which the enrichment ratio came to 6.41.
Regarding PAPV, the enrichment ratio is at most 0.25.
As for QDCN, the figure is at most 0.25; as for FMPH, at most 0.25; as for MNQN, at most 0.25.
Turning to NLVP, the enrichment ratio is at most 0.25.
To ARCH belongs 6.1.
As to DHNH, the enrichment ratio was at most 0.25.
To YIPP belongs at most 0.25.
Turning to WAHN, the enrichment ratio is at most 0.25.
As for MQDH, the figure is at most 0.25; as for VASI, 0.684; as for AVLH, 1.54.
As for VCVD, the enrichment ratio is at most 0.25.
In the case of DATP, the enrichment ratio is at most 0.25.
